# Assay results from PubChem BioAssay AID1345082 (National Center for Advancing Translational Sciences (NCATS), 2018).
# Screen size: about 94,000 compounds; about 4,000 (4.3%) were called active. The inconclusive results got no clear call from the source; some entries with a clear call stand among them for comparison. Calls come from the whole dose curve; as a rule, active = well fitted inhibition curve with a large enough effect; inconclusive = small, poorly fitted or top-dose-only effect; inactive = no such curve, though single readings can be large or run the other way. Potencies beside an inconclusive call are fits to weak or partial responses and may not hold up.
# Assay: Cytotoxic Profiling in NIH 3T3 Cell Line of Diverse Libraries Using Quantitative High-Throughput Screening; note: nearly all actives have a fitted effect of over 55% in size
# Details: NIH 3T3 viability, CellTiter-Glo ATP luminescence, 48-72 h; activity change, negative = cytotoxicity: at 96.7 µM (top of the series) unless noted; series mostly up to 96.7 µM
# Method in brief: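 ATP-dependent luminescence (CellTiter-Glo) served as the viability signal for NIH 3T3 cells treated with compound for 48 or 72 hr at 37 °C.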
# % is set by controls: 0 for no effect and ±100 for the full control effect; potency is the fitted concentration of half-maximal effect; tags give direction and shape of the fitted curve.
SMILES,Potency,"activity change, negative = cytotoxicity",outcome
C[C@]1(CO)C2CC[C@@H](O)[C@@H](CC(=O)NCc3cccs3)[C@]2(C)CC[C@H]1OC(=O)NC1CCCCC1 (some centres not stated),"inconclusive: 70.8 µM [inhibitor, single point]",–,–
COCCCn1c(C)cnc1C1CCN(C(=O)c2ccc(C)nc2)C1 (configuration not stated),–,inactive: -10.2%,–
Cc1cc(CN2CCCCCCn3c(nnc3-c3ccc(F)cc3)CC2)n(C)n1,"inconclusive: 44.7 µM [inhibitor, partial curve, poor fit]",–,–
CN1CCCN(C(=O)CC2CCCN(c3cnn(C)c(=O)c3)C2)CC1 (configuration not stated),–,inactive: -7.76%,–
COc1ccc(C(=O)N[C@H]2C[C@@H](c3nc(-c4ccccc4)no3)N(C)C2)cc1,"inconclusive: 70.8 µM [inhibitor, partial curve, poor fit]",–,–
CN(C)c1cccc(NCc2nc3c(n2Cc2ccccc2)C(=O)N(CCOc2ccccc2)CCN3)c1,"inconclusive: 39.8 µM [inhibitor, partial curve]",–,–
COc1cccc(-c2cccc(C(=O)N3CCCC3C(=O)NCCCc3ccccc3)c2)c1 (configuration not stated),"inconclusive: 50.1 µM [inhibitor, partial curve, poor fit]",–,–
Cc1ccncc1NC(=O)CC1=C2CCCCC2N(Cc2ccc(F)cc2)C1=O (configuration not stated),"inconclusive: 35.5 µM [inhibitor, partial curve]",–,–
OCCOc1ccc(CN(CCN2CCCCC2)CC2CCCN(C3CCCC3)C2)cc1 (configuration not stated),"inconclusive: 50.1 µM [inhibitor, partial curve, poor fit]",–,–
O=C(NCc1ccccc1)c1cc2c(s1)CCN(C(=O)c1ccccc1)C2,"inconclusive: 50.1 µM [inhibitor, partial curve, poor fit]",–,–
COc1ccc(-c2cc(N3CCC(NC(=O)COc4ccccc4C)CC3)n[nH]2)cc1,active: 25.1 µM,–,–
CCC(C)NC(=O)c1ccc(-c2ccc(N3CCSCC3)nc2)cc1 (configuration not stated),–,inactive: -4.51%,–
O=C1Nc2ccc(-c3ccc4c(c3)OCO4)cc2C(=O)N2CCN(C(=O)NC3CCCCC3)C[C@H]12,"inconclusive: 44.7 µM [inhibitor, partial curve, poor fit]",–,–
CN1CC(c2ccccc2)CC2(CCN(C(=O)CCc3cccnc3)CC2)C1 (configuration not stated),–,inactive: -16.1%,–
COc1cccc(CC(=O)Nc2ccc3c(c2)CN(Cc2cccc(OC)c2)C(=O)C(C)O3)c1 (configuration not stated),"inconclusive: 35.5 µM [inhibitor, partial curve]",–,–
COc1ccc(Nc2ccnc(N3CCC(C(=O)NCC(F)F)CC3)n2)cc1,"inconclusive: 39.8 µM [inhibitor, partial curve, poor fit]",–,–
COc1ccc(N2CCN(C(=O)Nc3nc(C)ns3)CC2(C)C)cc1,"inconclusive: 10 µM [inhibitor, full curve, poor fit]",–,–
CCOC(=O)[C@@H]1[C@@H](O)C(=O)N(Cc2ccccc2)C12CCN(C(=O)/C=C/c1ccccc1)CC2,"inconclusive: 56.2 µM [inhibitor, partial curve, poor fit]",–,–
Fc1ccc(-c2noc(-c3ncn4c3COC(c3ccccc3Cl)C4)n2)cc1 (configuration not stated),"inconclusive: 44.7 µM [inhibitor, partial curve, poor fit]",–,–
Cc1cn2nc(C(=O)NCc3ccc(C(F)(F)F)cc3)cc2c(N2CCSCC2)n1,"inconclusive: 39.8 µM [inhibitor, partial curve]",–,–
O=C(Nc1ccc(Cl)cc1)c1nc2c(o1)CCN(Cc1ccncc1)CC2,"inconclusive: 25.1 µM [inhibitor, partial curve, poor fit]",–,–

SMILES,Potency,"activity change, negative = cytotoxicity",outcome
COc1ccc(C(=O)N2CCC(CCn3c(C)cnc3C3CC3)CC2)cc1,–,inactive: -23.3%,–
CCNC(=O)OC1CN(C(=O)c2ccc(C(C)(C)C)cc2)CCC(=O)N(C)c2ccccc21 (configuration not stated),–,inactive: -25.1% [at 46.1 µM],–
CCc1ccc(C(=O)N2CCN(C3CCN(CCc4ccccc4)C3=O)CC2)cc1 (configuration not stated),–,inactive: -9.55%,–
OC(c1ccccc1)c1nc(Nc2ccc3c(c2)OCO3)n[nH]1 (configuration not stated),"inconclusive: 22.4 µM [inhibitor, partial curve, poor fit]",–,–
O=c1ccc(N2CCC(NS(=O)(=O)c3ccc(Cl)s3)CC2)nn1CC1CC1,"inconclusive: 11.2 µM [inhibitor, full curve, poor fit]",–,–
O=C(c1cc(-c2cccs2)[nH]n1)N1CCc2c(nc(-c3ccccc3)[nH]c2=O)C1,"inconclusive: 50.1 µM [inhibitor, partial curve, poor fit]",–,–
COc1ccc(C(=O)N2CCN(C(=O)c3ccc(-c4ccc(OC)nn4)cc3)CC2)cc1,"inconclusive: 44.7 µM [inhibitor, partial curve, poor fit]",–,–
CC(C)CCNC(=O)N1CCC2(CC1)CN(C(C)C)C2c1ccccc1 (configuration not stated),–,inactive: -8.07%,–
CCCn1nc2c(c1C)C(c1ccc(OCC(N)=O)c(Cl)c1)CC(=O)N2 (configuration not stated),"inconclusive: 35.5 µM [inhibitor, partial curve, poor fit]",–,–
COCCC(=O)N1CCCCCCNC(=O)[C@@H]2C[C@@H](C(=O)N3CCN(c4ccccn4)CC3)C[C@@H]21,"inconclusive: 44.7 µM [inhibitor, partial curve]",–,–
Cc1cccc(-c2noc([C@@H]3Cc4nc[nH]c4CN3C(=O)Nc3ccccc3)n2)c1,"inconclusive: 112 µM [inhibitor, partial curve, poor fit]",–,–
O=C(c1ccccc1)N1CCC(C(=O)N2CCCC2c2nc3ccncc3[nH]2)CC1 (configuration not stated),–,inactive: -7.84%,–
COc1ccccc1N1CCN(C(=O)Cn2c(C)cc3nc4n(c(=O)c32)CCCCC4)CC1,active: 28.2 µM,–,–
Cc1ccc(CNC(=O)CC2=C3CCCCC3N(Cc3ccc(F)cc3)C2=O)cc1 (configuration not stated),"inconclusive: 44.7 µM [inhibitor, partial curve, poor fit]",–,–
O=C(c1ccsc1)N1CCCC(CN2CCCC2)CC1 (configuration not stated),–,inactive: 0.768%,–
Cc1ccc(C(=O)NC2CCCN(c3cc(-c4ccccc4)[nH]n3)C2)cc1F (configuration not stated),"inconclusive: 50.1 µM [inhibitor, partial curve, poor fit]",–,–
COc1ccc(-c2cccc(C(=O)N3CCN(C(=O)c4ccccc4C)CC3)c2)nn1,–,inactive: -3.56%,–
COc1ccc(C(=O)N[C@H]2CO[C@H]3[C@@H]2OC[C@@H]3Nc2nccc(-c3cccc(F)c3)n2)cc1,–,inactive: -43.8%,–
CCOC(=O)c1cc2cc(NC(=O)C3=CC(C)(C)Oc4ccc(OC)cc43)ccc2o1,"inconclusive: 50.1 µM [inhibitor, partial curve, poor fit]",–,–
Cc1cc(F)ccc1NC(=O)CCC1CCCN(C(=O)c2ccc(Cl)s2)C1 (configuration not stated),"inconclusive: 44.7 µM [inhibitor, partial curve]",–,–
Cc1ccsc1CN1CC(N2CC(C(=O)N3CCCC3)CC2=O)C1 (configuration not stated),–,inactive: -10.8%,–

SMILES,Potency,"activity change, negative = cytotoxicity",outcome
COCCn1c(C)cnc1CC1CCCN(Cc2cccc(F)c2)C1 (configuration not stated),–,inactive: -29.5%,–
CCCn1cnc2c1CN(S(=O)(=O)c1cccc(C(F)(F)F)c1)[C@H](C(=O)OC)C2,"inconclusive: 126 µM [inhibitor, single point]",–,–
O=C1Nc2ccc(-c3ccsc3)cc2C(=O)N2C[C@@H](NS(=O)(=O)c3ccc(F)cc3)C[C@@H]12,–,inactive: -23.3%,–
Fc1ccc(CN2CCC3(CC2)CC(c2cccc(C(F)(F)F)c2)=NO3)cc1,"inconclusive: 50.1 µM [inhibitor, partial curve, poor fit]",–,–
CCC(C)NC(=O)C(NC(=O)c1ccccc1Cl)C1CCN(C(=O)CCc2ccccc2)CC1 (configuration not stated),"inconclusive: 39.8 µM [inhibitor, partial curve]",–,–
O=C(NC1CCCC1)N1CCc2nc(C3CC3)nc(-c3ccc(Cl)cc3)c2C1,"inconclusive: 70.8 µM [inhibitor, single point]",–,–
CN(C1CCc2nn(CC3CC3)c(=O)n2CC1)S(=O)(=O)c1ccc2c(c1)OCCO2 (configuration not stated),"inconclusive: 70.8 µM [inhibitor, single point]",–,–
O=c1cc(-c2cccnc2)oc2c(NCCc3ccccn3)nccc12,active: 35.5 µM,–,–
COc1cc(Cl)ccc1-c1nc(C2CC(=O)N(C3CCCCC3)C2)no1 (configuration not stated),"inconclusive: 50.1 µM [inhibitor, partial curve, poor fit]",–,–
O=C(c1ccoc1)N1CCCC(c2noc(COc3ccccc3)n2)C1 (configuration not stated),–,inactive: -18.4%,–
CC(=O)N1CCC(N2CCc3nn(Cc4ccccc4)c(=O)n3CC2)CC1,–,inactive: -8.26%,–
Cc1ccc2nc3n(c2c1)[C@@H](CNC(=O)COc1ccccc1)COC3,"inconclusive: 100 µM [inhibitor, partial curve, poor fit]",–,–
O=C(NC1CCN(c2nccc(Nc3ccccc3Cl)n2)CC1)c1cccc(Cl)c1,"inconclusive: 50.1 µM [inhibitor, partial curve, poor fit]",–,–
COc1ccc(-c2cc(C(=O)NCc3ccc(Cl)cc3)c3cnn(C)c3n2)cc1,"inconclusive: 56.2 µM [inhibitor, partial curve, poor fit]",–,–
COCc1nc(-c2ccc(OC3CN(C(=O)c4ccc(OC)cc4)C3)cc2)no1,"inconclusive: 50.1 µM [inhibitor, partial curve, poor fit]",–,–
O=C(NCc1ccc(Cl)cc1)c1nc2sccn2c1-c1cccnc1,"inconclusive: 50.1 µM [inhibitor, partial curve, poor fit]",–,–
COCC(=O)Nc1ccc([C@@H](O)[C@H]2COCC(=O)N2Cc2ccccc2)cc1,–,–,inactive [at 138 µM]
O=c1[nH]ccn1C1CCN([S+](=O)([O-])c2cccc(C(F)(F)F)c2)CC1,"inconclusive: 79.4 µM [inhibitor, partial curve, poor fit]",–,–
CCc1ccc(C(=O)N2CCC(n3cnnc3-c3ccccc3)CC2)cc1,–,inactive: -7.91%,–
NC(=O)[C@H]1C[C@@H](O)[C@H](O)[C@H]2[C@@H]1SC(=Nc1ccc(Cl)cc1)N2Cc1ccc(F)cc1,"inconclusive: 79.4 µM [inhibitor, partial curve, poor fit]",–,–
